Reference: the supplement of paper PMC7826260
The list shows a part of the results. Each Rep nickase domain was tested in vitro on the same pool of single strands for 1 h at 37 °C with 3 µM enzyme; only the middle of the 90-letter strands is printed. A value is the log2 ratio of uncut reads to the pool without enzyme; uncut sequences lie near 0, cut ones below; no hit call is given. Because reads are shares of a total, they shift together; where an enzyme cuts many sequences, the uncut ones exceed 0.

Experiments:
Assay in all cases: uncleaved DNA left, log2 of reads against the no-enzyme library (log2 ratio); higher = less cleavage (more negative = more Rep cleavage of the k-mer); sequences stand for … in CTCGTCCG…ACCGGAGA
[1] = tested on: T1, Rep nickase domain of Muscovy duck circovirus
T1 sequence (protein, residues 1-111, tag omitted): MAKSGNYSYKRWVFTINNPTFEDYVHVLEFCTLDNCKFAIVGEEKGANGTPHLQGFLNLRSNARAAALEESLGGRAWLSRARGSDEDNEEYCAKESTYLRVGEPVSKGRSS
Description: (§1)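 A pool of 90-nt single-stranded DNAs with seven random bases just before the constant AC of the nick site (name = the seven bases) was cut by 3 µM recombinant His6-SUMO-tagged Rep nickase domain (300 nM DNA, 50 mM HEPES pH 8.0, 50 mM NaCl, 1 mM MnCl2, 1 h, 37 °C, three replicates). Uncut DNA was amplified and sequenced.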

[2] = tested on: T2, Rep nickase domain of banana bunchy top virus
T2 sequence (protein, residues 1-94, tag omitted): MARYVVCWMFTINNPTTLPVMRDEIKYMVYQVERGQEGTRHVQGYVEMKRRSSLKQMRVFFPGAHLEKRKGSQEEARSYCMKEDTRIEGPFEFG
Description: as §1

[3] = tested on: T3, Rep nickase domain of cabbage leaf curl virus
T3 sequence (protein, residues 1-116, tag omitted): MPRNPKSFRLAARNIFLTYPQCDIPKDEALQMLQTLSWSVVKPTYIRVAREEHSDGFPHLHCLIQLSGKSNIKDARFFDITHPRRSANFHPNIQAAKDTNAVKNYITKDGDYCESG
Description: as §1

[4] = tested on: T4, Rep nickase domain of chickpea chlorotic dwarf virus
T4 sequence (protein, residues 1-124, tag omitted): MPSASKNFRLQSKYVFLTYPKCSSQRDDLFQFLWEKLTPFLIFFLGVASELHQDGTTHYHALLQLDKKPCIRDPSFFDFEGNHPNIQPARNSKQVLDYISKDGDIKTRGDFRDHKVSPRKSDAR
Description: as §1

[5] = tested on: T5, Rep nickase domain of faba bean necrotic yellows virus
T5 sequence (protein, residues 1-98, tag omitted): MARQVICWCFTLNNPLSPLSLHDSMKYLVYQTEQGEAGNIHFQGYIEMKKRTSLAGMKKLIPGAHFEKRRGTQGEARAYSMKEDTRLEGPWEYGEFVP
Description: as §1

[6] = tested on: T6, Rep nickase domain of maize striate mosaic virus
T6 sequence (protein, residues 1-117, tag omitted): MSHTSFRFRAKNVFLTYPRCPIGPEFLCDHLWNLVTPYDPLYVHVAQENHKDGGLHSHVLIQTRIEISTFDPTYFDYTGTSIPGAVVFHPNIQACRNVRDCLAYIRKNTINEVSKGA
Description: as §1

[7] = tested on: T7, Rep nickase domain of porcine circovirus 2
T7 sequence (protein, residues 2-116, tag omitted): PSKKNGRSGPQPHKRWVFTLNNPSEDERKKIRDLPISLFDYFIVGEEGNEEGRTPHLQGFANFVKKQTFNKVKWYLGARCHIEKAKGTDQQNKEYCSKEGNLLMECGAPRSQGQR
Description: as §1

[8] = tested on: T8, Rep nickase domain of tomato golden mosaic virus
T8 sequence (protein, residues 1-124, tag omitted): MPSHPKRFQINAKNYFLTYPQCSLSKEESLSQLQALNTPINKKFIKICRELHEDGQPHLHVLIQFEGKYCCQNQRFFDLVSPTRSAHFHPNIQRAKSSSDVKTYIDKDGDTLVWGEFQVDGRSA
Description: as §1

[9] = tested on: T9, Rep nickase domain of tomato yellow leaf curl virus
T9 sequence (protein, residues 1-136, tag omitted): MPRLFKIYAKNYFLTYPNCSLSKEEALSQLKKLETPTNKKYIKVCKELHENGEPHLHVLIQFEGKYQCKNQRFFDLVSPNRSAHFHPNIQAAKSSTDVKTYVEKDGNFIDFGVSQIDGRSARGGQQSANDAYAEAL
Description: as §1

[10] = tested on: T10, Rep nickase domain of wheat dwarf virus
T10 sequence (protein, residues 1-137, tag omitted): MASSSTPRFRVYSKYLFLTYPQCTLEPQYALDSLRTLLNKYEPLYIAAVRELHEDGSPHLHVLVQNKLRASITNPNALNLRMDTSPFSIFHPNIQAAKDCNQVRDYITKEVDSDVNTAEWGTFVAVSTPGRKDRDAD
Description: as §1

| Sequence | uncleaved DNA left (log2) [1] | uncleaved DNA left (log2) [2] | uncleaved DNA left (log2) [3] | uncleaved DNA left (log2) [4] | uncleaved DNA left (log2) [5] | uncleaved DNA left (log2) [6] | uncleaved DNA left (log2) [7] | uncleaved DNA left (log2) [8] | uncleaved DNA left (log2) [9] | uncleaved DNA left (log2) [10] |
| --- | --- | --- | --- | --- | --- | --- | --- | --- | --- | --- |
| TAATAGG | 0.0815 | 0.0416 | -0.0994 | 0.398 | 0.0379 | 0.939 | 0.12 | 0.0842 | -0.1 | 0.0617 |
| GGGACCT | -0.162 | 0.0449 | 0.79 | 1.96 | -0.0915 | 2.24 | 0.0787 | -0.0547 | -0.08 | 0.0468 |
| GATGTAA | 0.0746 | 0.113 | 0.357 | 0.617 | 0.135 | 1.4 | 0.0915 | 0.147 | 0.0836 | 0.0552 |
| AACTTTG | -0.162 | 0.00445 | -0.502 | -0.773 | -0.046 | -1.33 | -0.161 | -0.0935 | -0.00206 | -0.164 |
| CAATACT | -4.36 | -3.73 | -4.5 | -3.96 | -1.73 | -3.74 | -4.48 | -4.04 | -3.51 | -3.79 |
| TCAGCGT | -0.0971 | -0.186 | -0.795 | -0.599 | -0.00106 | -0.926 | 0.127 | -0.0696 | 0.0504 | -0.142 |
| ACGCATC | 0.107 | 0.0372 | -0.182 | -0.0854 | 0.0638 | -0.555 | 0.123 | 0.141 | -0.151 | -0.0326 |
| TCCCTAG | -0.0925 | 0.0622 | -0.65 | -0.947 | -0.0496 | -1.04 | 0.0675 | -0.154 | -0.0139 | -0.101 |
| TTTATAT | 0.0133 | 0.0512 | 0.206 | -0.62 | 0.0103 | -0.24 | -0.435 | -0.0549 | 0.00135 | 0.00904 |
| ATGTGTC | 0.0321 | -0.106 | -0.14 | -0.418 | -0.0487 | -0.798 | -0.0862 | -0.0246 | -0.123 | -0.0761 |
| ACCCTAA | -0.213 | -0.14 | -0.21 | -0.395 | -0.0697 | -0.569 | 0.0636 | -0.0147 | -0.222 | -0.123 |
| ACAGTAC | 0.0559 | 0.0431 | -0.21 | -0.773 | 0.0751 | -0.78 | 0.126 | 0.191 | -0.141 | 0.00709 |
| CACCTGA | -0.0119 | 0.0249 | 0.0179 | -0.301 | 0.211 | -0.108 | 0.0416 | 0.0295 | 0.0151 | 0.104 |
| GATCTTT | -0.0105 | 0.00254 | 0.0894 | -1.26 | -0.00611 | 1.04 | -1.16 | -0.0784 | -0.0211 | 0.0841 |
